Test results: PubChem BioAssay AID624296 (National Center for Advancing Translational Sciences (NCATS), 2012)
Hit rate of the full screen: of about 350,000 compounds, about 9,900 (2.8%) were called active. The shares of active, inactive and inconclusive entries below differ from those in the screen. Calls come from the whole dose curve; as a rule, active = well fitted activation curve with a large enough effect; inconclusive = small, poorly fitted or top-dose-only effect; inactive = no such curve, though single readings can be large or run the other way. No potency is given beside an inconclusive call; the fits are too rough.

Test: A quantitative high throughput screen for small molecules that induce DNA re-replication in MCF 10a normal breast cells. For activity, positive = re-replication: % of control where 0% means no effect. Note: nearly all actives have a fitted effect of over 50% in size.
Details: MCF 10A DNA re-replication, Hoechst nuclear intensity, 48 h; activity, positive = re-replication: at 46.1 µM (top of the series)
Potency is the fitted concentration of half-maximal effect; tags give direction and shape of the fitted curve.

Question: With `Cc1ccc(C(=O)c2oc3nc(C)cc(C)c3c2N)cc1` as the compound, how does the Potency read?
Answer: active: 9.2 µM

Question: With `C[C@H](C[C@H](O)[C@H]1OC1(C)C)C1=C2C[C@H](O)C3[C@@]4(C)CCC(=O)C(C)(C)C4CC[C@]3(C)[C@@]2(C)CC1` (some centres undefined) as the compound, how does the Potency read?
Answer: inconclusive [activator, single point]

Question: With `CCOc1ccc2nc(Cl)c(C3CC(c4ccco4)=NN3S(C)(=O)=O)cc2c1` (centres undefined) as the compound, how does the Potency read?
Answer: inactive

Question: With `COc1ccc(CN(Cc2cc3ccc(C)cc3[nH]c2=O)Cc2nnnn2C2CCCC2)cc1` as the compound, how does the Potency read?
Answer: inactive

Question: For `COc1ccc(OC)c(NC(=O)c2nnn(Cc3ccccc3C)c2N)c1`, which Potency is on record?
Answer: inconclusive [activator, partial curve, poor fit]

Question: Which Potency does the source give for `O=C(CCNC(=O)c1ccc(Br)cc1)NC1CCCCCC1` here?
Answer: inactive

Question: Which Potency does the source give for `CCOc1ccc(NC(=S)N=Nc2c(O)[nH]c3ccccc23)cc1` here?
Answer: inconclusive [activator, partial curve]

Question: Which Potency does the source give for `COc1ccccc1OCCSc1nnc(CNC(=O)c2ccco2)n1C` here?
Answer: inactive

Question: With `COc1cc(C2NC(=O)C(C#N)=C(S)N2c2ccccc2)ccc1OC(C)C` (centres undefined) as the compound, how does the Potency read?
Answer: inconclusive [activator, partial curve, poor fit]

Question: With `CCC1CN(C(=O)NCc2ccc(C)cc2)c2cc(C)ccc2O1` (centres undefined) as the compound, how does the Potency read?
Answer: inactive

Question: With `Nc1ccc(C#Cc2ccc3sc4ccccc4c(=O)c3c2)cc1` as the compound, how does the Potency read?
Answer: inconclusive [activator, partial curve, poor fit]

Question: Which Potency does the source give for `COc1cc(O)c(C(CCN2CCN(c3ccccc3)CC2)c2ccc3c(c2)OCO3)c(OC)c1` (centres undefined) here?
Answer: inconclusive [activator, full curve, poor fit]

Question: For `Cc1ccc(NC(=O)c2oc3ccccc3c2NC(=O)C2CCCO2)cc1C` (centres undefined), which Potency is on record?
Answer: inconclusive [activator, partial curve, poor fit]

Question: With `Cc1nnnn1/C(=C\c1ccccc1)C(=O)OCC(=O)NC(C)(C)C` as the compound, how does the Potency read?
Answer: inconclusive [activator, single point]

Question: For `CCn1c(=N)c(C(=O)NC)cc2c(=O)n3cccc(C)c3nc21`, which Potency is on record?
Answer: inconclusive [activator, full curve, poor fit]

Question: With `Cc1sc2nc[nH]c(=S)c2c1-c1ccccc1` as the compound, how does the Potency read?
Answer: inconclusive [activator, partial curve, poor fit]

Question: With `CCCn1nnnc1NC(=O)c1ccc(C)cc1Cl` as the compound, how does the Potency read?
Answer: inactive

Question: For `CC(=O)Oc1ccc2ccc3ccc(C(C)=O)cc3c2c1`, which Potency is on record?
Answer: inconclusive [activator, single point]

Question: With `COc1ccccc1NC(=S)NNC(=S)Nc1ccc(OC(F)F)cc1` as the compound, how does the Potency read?
Answer: inconclusive [activator, partial curve, poor fit]

Question: For `COc1ccc(-n2nc(C(=O)N3CCC(N4CCCCC4)CC3)c3c4ccccc4n(C)c3c2=O)cc1`, which Potency is on record?
Answer: inactive

Question: For `O=C(Nc1nc(-c2ccccc2)cs1)C1CCCO1` (centres undefined), which Potency is on record?
Answer: inconclusive [activator, single point]

Question: For `CC(C)N(C(=O)NC(=O)NCC1CCCO1)S(C)(=O)=O` (centres undefined), which Potency is on record?
Answer: inconclusive [activator, single point]

Question: For `Fc1ccc2nc3n(c2c1F)CCCCCC3`, which Potency is on record?
Answer: inconclusive [activator, partial curve]

Question: Which Potency does the source give for `CC(C)C[C@@H](CN)NC(=O)c1nc[nH]c1C(=O)N[C@@H](CC(C)C)C(=O)CNC[C@H](C)NC(=O)c1nc[nH]c1C(=O)N[C@@H](C)C(=O)O` here?
Answer: inactive

Question: For `COc1cccc(C(=O)N(Cc2ccco2)Cc2cc3cccc(C)c3[nH]c2=O)c1`, which Potency is on record?
Answer: inconclusive [activator, partial curve, poor fit]

Question: For `CN(C)Cc1c(C(=O)N/N=C/C2CC=CCC2)nnn1-c1nonc1N` (centres undefined), which activity, positive = re-replication is on record?
Answer: inconclusive: -44.2% [activator]

Question: With `O=S(=O)(c1ccccc1)c1nc(-c2ccco2)oc1N1CCCCCC1` as the compound, how does the Potency read?
Answer: inconclusive [activator, partial curve]

Question: Which Potency does the source give for `COc1cccc(CN2CCNC(=O)C2CC(=O)N(C)CCC2CCOCC2)c1OC` (centres undefined) here?
Answer: inactive

Question: With `CCCCCn1c(=NC(C)=O)c(C#N)cc2c(=O)n3ccccc3nc21` as the compound, how does the Potency read?
Answer: inconclusive [activator, partial curve, poor fit]

Question: Which Potency does the source give for `COc1ccccc1NS(=O)(=O)c1cccc(C(=O)N/N=C/c2c(C)nn(-c3ccccc3)c2N2CCCC2)c1` here?
Answer: inconclusive [activator, full curve, poor fit]

Question: With `CN(C(=O)c1ccc(NC(=O)Cc2ccc(NC(=O)C3CCCN(C(=O)c4ccccc4)C3)cc2)cc1)C1CCCC1` (centres undefined) as the compound, how does the Potency read?
Answer: inconclusive [activator, full curve, poor fit]

Question: With `S=C(NCCCN1CCOCC1)N1CCN(c2nc(-c3ccccc3)cs2)CC1` as the compound, how does the Potency read?
Answer: inconclusive [activator, partial curve, poor fit]

Question: With `O=C(c1ccc(Cl)cc1)[C@@H]1[C@@H]2C(=O)N(c3ccccc3)C(=O)[C@@H]2C2c3ccccc3C=NN21` (some centres undefined) as the compound, how does the Potency read?
Answer: inconclusive [activator, single point]

Question: Which Potency does the source give for `CCCc1c(C(=O)Nc2ccc(F)cc2)cnn1-c1ccccc1` here?
Answer: inconclusive [activator, full curve, poor fit]

Question: For `CCC(C)(C)n1nnnc1CN(Cc1ccc(Cl)cc1)Cc1ccco1`, which Potency is on record?
Answer: inconclusive [activator, single point]

Question: With `CCOC(=O)C1Nc2ccc(Br)cc2C2C=CCC12` (centres undefined) as the compound, how does the Potency read?
Answer: inconclusive [activator, single point]

Question: Which Potency does the source give for `COC(CNC(=O)c1ccc2c(=O)n(Cc3ccc4c(c3)OCO4)c(=S)[nH]c2c1)OC` here?
Answer: inconclusive [activator, single point]

Question: For `COc1ccc([C@H]2CC(=O)C=C(c3cc(C)ccc3F)C2)cc1`, which Potency is on record?
Answer: inconclusive [activator, single point]

Question: For `O=[N+]([O-])c1ccc(-c2c(-c3ccccc3)ncc3ccc(F)cc23)cc1`, which Potency is on record?
Answer: inconclusive [activator, full curve, poor fit]

Question: Which Potency does the source give for `O=[N+]([O-])c1ccc(O)c(-c2nc(-c3ccccc3)c(-c3cccs3)[nH]2)c1` here?
Answer: inconclusive [activator, partial curve, poor fit]

Question: For `CCN1CCCc2cc(CN(CCN3CCOCC3)C(=S)Nc3cc(F)cc(F)c3)ccc21`, which Potency is on record?
Answer: inactive

Question: Which Potency does the source give for `O=C(CSc1nc(C2CCCCC2)nc2ccccc12)N1CCCC1` here?
Answer: inconclusive [activator, partial curve, poor fit]

Question: For `Cc1nnc2ccc(-c3cccc(NS(C)(=O)=O)c3)nn12`, which Potency is on record?
Answer: inactive

Question: Which Potency does the source give for `CCOC(=O)c1ccc(NC(=O)CCc2nc(-c3cccc(C)c3)no2)cc1` here?
Answer: inconclusive [activator, single point]

Question: Which Potency does the source give for `COc1cccc(CC2(CO)CCCN(Cc3ccc(C)s3)C2)c1` (centres undefined) here?
Answer: inconclusive [activator, single point]

Question: For `O=C(c1ccc(Br)cc1)c1cc([N+](=O)[O-])ccc1N1CCOCC1`, which Potency is on record?
Answer: inconclusive [activator, full curve, poor fit]

Question: With `CCOC(=O)c1c(NC(=O)c2ccn(CC)n2)sc2c1CCC2` as the compound, how does the Potency read?
Answer: inconclusive [activator, partial curve, poor fit]

Question: Which Potency does the source give for `CC1CCCCN1C(=S)NC(=O)c1ccco1` (centres undefined) here?
Answer: inactive

Question: Which Potency does the source give for `CCCCCCCSc1ncnc2[nH]ncc12` here?
Answer: inconclusive [activator, single point]

Question: With `Cc1ccc(S(=O)(=O)N(Cc2ccc([N+](=O)[O-])cc2)C(=O)N2CCN(C)CC2)cc1` as the compound, how does the Potency read?
Answer: inactive

Question: For `COc1ccc(-c2cc(C(F)(F)F)nc(SCC(N)=O)n2)cc1`, which Potency is on record?
Answer: inconclusive [activator, partial curve]

Question: With `C[C@@H]1CCN(C(=O)[C@H](CCCNC(=N)N)NS(=O)(=O)c2cccc3c2NC[C@H](C)C3)[C@@H](C(=O)O)C1` as the compound, how does the Potency read?
Answer: inactive

Question: Which Potency does the source give for `N#Cc1ccc(OCC(O)CN2CCN(C(c3ccccc3)c3ccccc3)CC2)cc1` (centres undefined) here?
Answer: inconclusive [activator, single point]

Question: With `COc1ccc(/C=C/C(=O)N(CCC(N)=O)c2ccccc2)cc1S(=O)(=O)N1CCOCC1` as the compound, how does the Potency read?
Answer: inactive

Question: With `COc1ccc(Cl)cc1NC(=O)CC(C)=O` as the compound, how does the Potency read?
Answer: inconclusive [activator, partial curve]

Question: Which Potency does the source give for `c1ccc(CCCCN2C(Nc3ccccc3)=NC[C@@H]2Cc2ccccc2)cc1` here?
Answer: inconclusive [activator, full curve, poor fit]

Question: Which Potency does the source give for `CC(C)Cc1nnc(NC(=O)c2cc3c(s2)CCC3)s1` here?
Answer: active: 23.1 µM

Question: Which Potency does the source give for `O=C(/C=C/NCc1cccnc1)c1ccc(-c2ccccc2)cc1` here?
Answer: inconclusive [activator, single point]

Question: Which Potency does the source give for `COc1ccccc1/C=C/C=N/n1c(-c2ccc(C)cc2)n[nH]c1=S` here?
Answer: inconclusive [activator, partial curve, poor fit]

Question: Which Potency does the source give for `O=C(COc1ccc(Cl)cc1Cl)Nc1ccccc1F` here?
Answer: inconclusive [activator, single point]

Question: With `Cc1ccc(-n2cc(CNCCCn3cccn3)c(-c3cccc(C)c3)n2)cc1` as the compound, how does the Potency read?
Answer: inconclusive [activator, single point]

Question: For `O=c1[nH]c(-c2ccccc2)nc(-c2ccccc2)c1Cl`, which Potency is on record?
Answer: inactive

Question: Which Potency does the source give for `CCCCn1c(N)c(N(CCOC)C(=O)C2CCN(c3ncnc4sc(C)c(C)c34)CC2)c(=O)[nH]c1=O` here?
Answer: inactive

Question: With `COc1ccc(N2CCN(C(=O)c3ccc(N4C(=O)NC5CC4(C)Oc4ccccc45)cc3)CC2)cc1` (centres undefined) as the compound, how does the Potency read?
Answer: inconclusive [activator, single point]
